# Substitutions are numbered along the chain they refer to; changes in the protein carry UniProt numbers. The list shows a part of the results.
# T1: RBFOX1 RRM RbFoxmut (Fox-RRM*) (Homo sapiens, UniProt Q9NWB1 109-208, R118D;E147R;N151S;E152T)
# T1 sequence: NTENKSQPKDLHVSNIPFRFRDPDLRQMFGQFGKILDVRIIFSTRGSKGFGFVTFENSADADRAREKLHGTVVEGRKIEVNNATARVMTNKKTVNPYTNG
# B1: ACCAGCU (DNA:RNA)
# RNA: GGGAGACCGGAAUUCAGAUUGUCCACCAGCUUUAAAUCCCGUCGUAGCCACCA
# DNA 1: CAATCTGAATTCCGGTCTCCC
# DNA 2: TGGTGGCTACGACGGGATT
# B2: ACCGUCC (DNA:RNA)
# RNA: B1 RNA with A28G, G29U, U31C
# DNA 1: CAATCTGAATTCCGGTCTCCC
# DNA 2: TGGTGGCTACGACGGGATT
# B3: CCGUUGG (DNA:RNA)
# RNA: B1 RNA with A25C, C27G, A28U, G29U, C30G, U31G
# DNA 1: CAATCTGAATTCCGGTCTCCC
# DNA 2: TGGTGGCTACGACGGGATT
# B4: CCCAGGU (DNA:RNA)
# RNA: B1 RNA with A25C, C30G
# DNA 1: CAATCTGAATTCCGGTCTCCC
# DNA 2: TGGTGGCTACGACGGGATT
# B5: GAACACA (DNA:RNA)
# RNA: B1 RNA with A25G, C26A, C27A, A28C, G29A, U31A
# DNA 1: CAATCTGAATTCCGGTCTCCC
# DNA 2: TGGTGGCTACGACGGGATT
# B6: GCUUUAA (DNA:RNA)
# RNA: B1 RNA with A25G, C27U, A28U, G29U, C30A, U31A
# DNA 1: CAATCTGAATTCCGGTCTCCC
# DNA 2: TGGTGGCTACGACGGGATT
# B7: GAUGUUG (DNA:RNA)
# RNA: GGGAGACCGGAAUUCAGAUUGUCCGAUGUUGUUAAAUCCCGUCGUAGCCACCA
# DNA 1: CAATCTGAATTCCGGTCTCCC
# DNA 2: TGGTGGCTACGACGGGATT
# B8: ACACGCG (DNA:RNA)
# RNA: B1 RNA with C27A, A28C, U31G
# DNA 1: CAATCTGAATTCCGGTCTCCC
# DNA 2: TGGTGGCTACGACGGGATT
# B9: UCAGAAA (DNA:RNA)
# RNA: B1 RNA with A25U, C27A, A28G, G29A, C30A, U31A
# DNA 1: CAATCTGAATTCCGGTCTCCC
# DNA 2: TGGTGGCTACGACGGGATT
# B10: UUUGCCA (DNA:RNA)
# RNA: B7 RNA with G25U, A26U, U29C, U30C, G31A
# DNA 1: CAATCTGAATTCCGGTCTCCC
# DNA 2: TGGTGGCTACGACGGGATT
# B11: CGUAAUC (DNA:RNA)
# RNA: B7 RNA with G25C, A26G, G28A, U29A, G31C
# DNA 1: CAATCTGAATTCCGGTCTCCC
# DNA 2: TGGTGGCTACGACGGGATT
# B12: GAUGUAC (DNA:RNA)
# RNA: B7 RNA with U30A, G31C
# DNA 1: CAATCTGAATTCCGGTCTCCC
# DNA 2: TGGTGGCTACGACGGGATT
# B13: CAUCUUC (DNA:RNA)
# RNA: B7 RNA with G25C, G28C, G31C
# DNA 1: CAATCTGAATTCCGGTCTCCC
# DNA 2: TGGTGGCTACGACGGGATT
# B14: GGAGAUA (DNA:RNA)
# RNA: B7 RNA with A26G, U27A, U29A, G31A
# DNA 1: CAATCTGAATTCCGGTCTCCC
# DNA 2: TGGTGGCTACGACGGGATT
# B15: AGGAUCU (DNA:RNA)
# RNA: B1 RNA with C26G, C27G, G29U
# DNA 1: CAATCTGAATTCCGGTCTCCC
# DNA 2: TGGTGGCTACGACGGGATT
# B16: AGCCAAU (DNA:RNA)
# RNA: B1 RNA with C26G, A28C, G29A, C30A
# DNA 1: CAATCTGAATTCCGGTCTCCC
# DNA 2: TGGTGGCTACGACGGGATT
# B17: GCGUCUC (DNA:RNA)
# RNA: B7 RNA with A26C, U27G, G28U, U29C, G31C
# DNA 1: CAATCTGAATTCCGGTCTCCC
# DNA 2: TGGTGGCTACGACGGGATT
# B18: AUUGAAU (DNA:RNA)
# RNA: B1 RNA with C26U, C27U, A28G, G29A, C30A
# DNA 1: CAATCTGAATTCCGGTCTCCC
# DNA 2: TGGTGGCTACGACGGGATT
# B19: CCUAGUU (DNA:RNA)
# RNA: B1 RNA with A25C, C27U, C30U
# DNA 1: CAATCTGAATTCCGGTCTCCC
# DNA 2: TGGTGGCTACGACGGGATT
# B20: AUAUGCU (DNA:RNA)
# RNA: B1 RNA with C26U, C27A, A28U
# DNA 1: CAATCTGAATTCCGGTCTCCC
# DNA 2: TGGTGGCTACGACGGGATT
# B21: AAAUACG (DNA:RNA)
# RNA: B1 RNA with C26A, C27A, A28U, G29A, U31G
# DNA 1: CAATCTGAATTCCGGTCTCCC
# DNA 2: TGGTGGCTACGACGGGATT
# B22: UUAACUU (DNA:RNA)
# RNA: B1 RNA with A25U, C26U, C27A, G29C, C30U
# DNA 1: CAATCTGAATTCCGGTCTCCC
# DNA 2: TGGTGGCTACGACGGGATT
# B23: AGCGUCG (DNA:RNA)
# RNA: B1 RNA with C26G, A28G, G29U, U31G
# DNA 1: CAATCTGAATTCCGGTCTCCC
# DNA 2: TGGTGGCTACGACGGGATT
# B24: AAAUUGG (DNA:RNA)
# RNA: B7 RNA with G25A, U27A, G28U, U30G
# DNA 1: CAATCTGAATTCCGGTCTCCC
# DNA 2: TGGTGGCTACGACGGGATT
# B25: CUUUCUU (DNA:RNA)
# RNA: B7 RNA with G25C, A26U, G28U, U29C, G31U
# DNA 1: CAATCTGAATTCCGGTCTCCC
# DNA 2: TGGTGGCTACGACGGGATT
# B26: UAUCAAU (DNA:RNA)
# RNA: B7 RNA with G25U, G28C, U29A, U30A, G31U
# DNA 1: CAATCTGAATTCCGGTCTCCC
# DNA 2: TGGTGGCTACGACGGGATT
# B27: GUGAGUG (DNA:RNA)
# RNA: B7 RNA with A26U, U27G, G28A, U29G
# DNA 1: CAATCTGAATTCCGGTCTCCC
# DNA 2: TGGTGGCTACGACGGGATT
# B28: CCGGUCC (DNA:RNA)
# RNA: B1 RNA with A25C, C27G, A28G, G29U, U31C
# DNA 1: CAATCTGAATTCCGGTCTCCC
# DNA 2: TGGTGGCTACGACGGGATT
# B29: UUUUAGC (DNA:RNA)
# RNA: B7 RNA with G25U, A26U, G28U, U29A, U30G, G31C
# DNA 1: CAATCTGAATTCCGGTCTCCC
# DNA 2: TGGTGGCTACGACGGGATT
# B30: CCUCUCU (DNA:RNA)
# RNA: B1 RNA with A25C, C27U, A28C, G29U
# DNA 1: CAATCTGAATTCCGGTCTCCC
# DNA 2: TGGTGGCTACGACGGGATT
# B31: CUUGAUA (DNA:RNA)
# RNA: B7 RNA with G25C, A26U, U29A, G31A
# DNA 1: CAATCTGAATTCCGGTCTCCC
# DNA 2: TGGTGGCTACGACGGGATT
# Molecular target: T1, RBFOX1 RRM RbFoxmut (Fox-RRM*)
# Experiment: EMSA; HiTS-Eq, 1 nM pool, 10 min; buffer printed only for the single-RNA assays: 10 mM Tris pH 7.5, 150 mM NaCl, 3.4 mM EDTA, 0.001% NP-40, 30 C
# Conditions: tags: His6 N-terminal (pET28a); label: 5' 32P
# Procedure, shortened: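 Purified RbFox RRM, wild type or mutant, was incubated for 10 min in 50 µL with 1 nM of a 5′-radiolabelled RNA pool carrying 7 randomized nucleotides, whose flanks were annealed to DNA oligonucleotides, over a series of increasing protein concentrations. Unbound RNA was resolved on 8% native PAGE, cut out, reverse-transcribed, barcoded by PCR and sequenced on an Illumina HiSeq 2500. Relative association constants were derived from changes in read counts for each RNA species versus the control reaction and normalised to the cognate motif.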
row,Binder,binding signal
1,B1,0.0887 KA relative to UGCAUGU
2,B2,0.0723 KA relative to UGCAUGU
3,B3,0.0941 KA relative to UGCAUGU
4,B4,0.115 KA relative to UGCAUGU
5,B5,0.0865 KA relative to UGCAUGU
6,B6,0.103 KA relative to UGCAUGU
7,B7,0.132 KA relative to UGCAUGU
8,B8,0.12 KA relative to UGCAUGU
9,B9,0.101 KA relative to UGCAUGU
10,B10,0.11 KA relative to UGCAUGU
11,B11,0.0673 KA relative to UGCAUGU
12,B12,0.0856 KA relative to UGCAUGU
13,B13,0.0623 KA relative to UGCAUGU
14,B14,0.112 KA relative to UGCAUGU
15,B15,0.0527 KA relative to UGCAUGU
16,B16,0.0479 KA relative to UGCAUGU

row,Binder,binding signal
1,B17,0.072 KA relative to UGCAUGU
2,B18,0.135 KA relative to UGCAUGU
3,B19,0.0853 KA relative to UGCAUGU
4,B20,0.129 KA relative to UGCAUGU
5,B21,0.115 KA relative to UGCAUGU
6,B22,0.0767 KA relative to UGCAUGU
7,B23,0.1 KA relative to UGCAUGU
8,B24,0.0727 KA relative to UGCAUGU
9,B25,0.088 KA relative to UGCAUGU
10,B26,0.0491 KA relative to UGCAUGU
11,B27,0.297 KA relative to UGCAUGU
12,B28,0.0485 KA relative to UGCAUGU
13,B29,0.109 KA relative to UGCAUGU
14,B30,0.0597 KA relative to UGCAUGU
15,B31,0.134 KA relative to UGCAUGU
